From the supplement of paper PMC10338343
± gives the standard deviation. The entries are a selection whose mix differs from that of the whole data set.

Tested on: MIWI (PIWIL1) piRISC loaded with L1MC piRNA (30 nt)
Assay: pre-steady-state target cleavage rate (min^-1); MIWI and MILI are mouse PIWI proteins and EfPiwi is from a freshwater sponge; tags in brackets are library labels; higher = faster piRNA-guided slicing of the target
Conditions: guide: L1MC piRNA 5'p-UAACUAAAUACUAUGCAAGCUGUAGGUCCU; auxiliary factor: 500 nM mouse GTSF1
In short: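 A transcribed, DNA-blocked target RNA library […] was incubated at 33 °C for 0–8 or 0–960 min with 1 nM active affinity-purified piRISC carrying one synthetic guide, in HEPES–potassium acetate buffer with or without 500 nM GTSF1 partner protein. Uncleaved targets were then sequenced and normalised to depth and to weakly complementary targets. Data from three trials were pooled, with k3 capped at 0.0001 min^-1, and a burst-and-steady-state fit yielded the pre-steady-state cleavage rate.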
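Also: 1 nM active piRISC with 0.1 nM target library at 33 °C single turnover.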

| Sequence | pre-steady-state target cleavage rate |
| --- | --- |
| UGGACCUACAGCUUGCAUAGUAAUUUCAAA | 0.129 ± 0.038 |
| UCCUGCUACAGCUUGCAUAGCUAUUUAGUUA | 0.0118 ± 0.0063 |
| UCCUGCAUGAGCUUGCAUAGUAUUUACAAA | 0.17 ± 0.04 |
| UCCACCUACAGCUUCGUUAGUAUUUAGUUA | 0.0745 ± 0.011 |
| UCCUCCUACAGGAAGCAUAGUAUUUAGAAA | 0.0935 ± 0.016 |
| UCCUGGAUGUGCUUGCAUAGUAUAUUGUUA | 0.0237 ± 0.0084 |
| UCCUGGAUGUCGAACGUUAGUAUUUACAUA | < 0.0001 |
| UCCUGGAUGUGCUUGUCAUAGUAUUUAGUUA | 0.0124 ± 0.0039 |
| UCCUGGUACAGCUUGCAUAGUAUUAGUUA | 0.087 ± 0.019 |
| UCCACCUACAGCUUGCAUAGUUUUUAGAAA | 0.163 ± 0.033 |
| UCCUCCUACAGCUUGCAUACUAUUUUCAAA | 0.156 ± 0.035 |
| UCCUGGAACUGCUUCCAUAGUAUUUAGUUA | 0.035 ± 0.008 |
| UCCUCCUACAGCUUGGUAAGUAUUUAGUAA | 0.0288 ± 0.0087 |
| UCCUGGAUGUCGAACGUAUGUUUUUAGAUA | < 0.0001 |
| UCCACCUACAGCUUGCAAUGUAUUUACAAA | 0.0629 ± 0.015 |
| UGGUGGUACAGCUUGCAUAGUAUUUUCAAA | 0.145 ± 0.023 |
| UCGACCUACAGCAAGCAUAGUAUUUAGAAA | 0.349 ± 0.041 |
| AGGACCUACAGCAUGCAUAGUAUUUUCAAA | 0.436 ± 0.062 |
| UCCUGGAUGAGCAUCCAUAGUAUUUAGUUA | 0.0384 ± 0.013 |

| Sequence | pre-steady-state target cleavage rate |
| --- | --- |
| UCCUGGAUGAGCUUGCAUAGUAUAUAGAAA | 0.0154 ± 0.0069 |
| UCCUGGAUGUGCUUGCAUACUAAUUAGUUA | 0.00673 ± 0.0036 |
| UCCUGGAUGUCGAUGCAUAGUAUUUACUUA | 0.00979 ± 0.0041 |
| UCCUGGAUGUCGAACCAAAGAAUUUAGUUA | < 0.0001 |
| UCCUGCAUGAGCUUGCAUAGUAUUUUCAAA | 0.113 ± 0.024 |
| UCCUGGUACAGCUUGCAUAGUUAUUAGAAA | 0.037 ± 0.014 |
| UGGACCUACUCGUUGCAUAGUAUUUACAAA | 0.0236 ± 0.0059 |
| UCCACCUACAGCUACCAUAGUAUUUAGAAA | 0.0452 ± 0.014 |
| UCCUGGAUGUCCUUGCAUAGUUUUUUGUUA | 0.00506 ± 0.004 |
| UCCUGGAUGUCGAAGCAUAGUAUUUUGUUA | 0.00423 ± 0.0028 |
| UCCUGGAUCAGCUUGCAUACAAUUUAGUUA | 0.00714 ± 0.0037 |
| UCCUGGAUGUCCUUGCAUAGUUUUUACUUA | 0.00583 ± 0.0041 |
| UCCACCUACAGCUUGCAAUCUAUUUAGUAA | 0.131 ± 0.024 |
| UCCUGGAUGUCGAUGCAUAGUAUUUAGUUU [g2:g17:cont:t1U] | 0.00599 ± 0.0026 |
| UCCUGGAUGUCGUAGCAUAGUAUUUACUUA | 0.0046 ± 0.0037 |
| UCCUGGAUGUCGUGUGCAUAGUAUUUAGUUA | 0.0163 ± 0.0053 |
| UCCUGCUACAGCUUGCAUAGUAUUAUGAAA | 0.214 ± 0.039 |
| UGGACCUUGUGCUUGCAUAGUAUUUUCAAA | 0.0114 ± 0.0026 |
| UCCUGGAACACGUUGCAUAGUAUUUAGAAA | 0.0137 ± 0.0067 |
